# Laboratory results taken from the supplement of paper PMC3724861.
# The list shows a part of the results.
# Test system: T1, Caupolican (Caup) homeodomain DNA-binding domain
# T1 sequence: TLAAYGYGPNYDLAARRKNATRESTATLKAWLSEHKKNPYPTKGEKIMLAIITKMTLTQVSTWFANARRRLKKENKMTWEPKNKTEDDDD
# Assay: PBM E-score (8-mer, recovered from the published 9-mer minima) (E-score (dimensionless, -0.5 to 0.5)); Drosophila protein; higher = stronger relative binding preference, active = 0.31 or more
# Summary of the method: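 Caup's homeodomain DNA-binding domain (residues 214-303) was produced by in vitro transcription and translation and applied at 100 nM to custom-designed protein binding microarrays. Each value is an enrichment score giving relative binding preference for a short DNA word; higher means stronger. Published 9-mer scores were the minimum of their two constituent 8-mer scores, and the 8-mer values were recovered from those minima. A cutoff of 0.31 marks candidate binding sequences.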
row,Sequence,PBM E-score
1,CATGTCGC,active: 0.363
2,GCTCCTAC,inactive: -0.0796
3,GCGCAGCA,inactive: -0.249
4,CCAGTAAG,inactive: 0.0272
5,ATGACTAC,inactive: 0.105
6,CTAAGCGA,inactive: -0.115
7,CCCGAAGG,inactive: -0.208
8,AAGTGCGA,inactive: -0.145
9,CCGCCTTC,inactive: -0.262
10,GCGTTTAA,inactive: 0.083
11,TGCTAGCA,≥ 0.0581
12,GCACACTA,inactive: 0.0238
13,CGCTTCTA,inactive: -0.0139
14,AGTTAAAG,inactive: 0.0212
15,CCACTGTC,inactive: -0.102
16,CCTTCCTA,inactive: -0.139
17,ACCATCTG,inactive: -0.0289
18,CCAGGAAA,inactive: -0.0138
19,AGAACGCG,inactive: -0.0353
20,CGCGCGAA,inactive: -0.0533
21,AAGCGAAA,inactive: -0.0906
22,AACGAAGT,inactive: 0.0539
23,ACATTCCG,inactive: 0.109
24,GACGGCGA,inactive: -0.228

row,Sequence,PBM E-score
1,AATTAAAG,inactive: -0.0157
2,AGTCTATA,inactive: 0.0467
3,CAGGGCTA,inactive: -0.125
4,CTCAGCAA,inactive: 0.0502
5,AACACATG,active: 0.313
6,ATGATGAC,inactive: 0.0907
7,AATCAAAG,inactive: -0.0389
8,ACCGTGGC,inactive: -0.0957
9,ATTACATA,active: ≥ 0.385
10,AGATTACT,inactive: 0.108
11,CTAAACTC,inactive: -0.0416
12,TCATTACA,inactive: 0.291
13,CTTTCTAC,inactive: 0.0118
14,CAGTGCGG,inactive: -0.227
15,CACTCAAA,inactive: 0.0936
16,CGGGCAGA,inactive: -0.0885
17,AGAAGACG,inactive: -0.0252
18,GAACAACA,inactive: 0.292
19,AACGTGTA,active: 0.371
20,AAAGACGG,inactive: -0.139
21,TGAATGAA,inactive: 0.0539
22,CGACTTTA,inactive: 0.0125
23,ATATCAGC,inactive: 0.112
24,GGGCAATA,inactive: -0.0408

row,Sequence,PBM E-score
1,AGATACCT,inactive: 0.0373
2,CTAGAAAG,inactive: -0.00765
3,GCGGTGTA,inactive: 0.234
4,ACTTGGCC,inactive: -0.142
5,GGTCTTAC,inactive: 0.013
6,CAGGTTCC,inactive: -0.0686
7,AGCTCAGA,inactive: -0.0611
8,ATTGAGGC,inactive: -0.183
9,CATGGTTC,inactive: 0.0641
10,CTTGTGAC,inactive: 0.0863
11,ATGGACCG,inactive: -0.0785
12,CCATACCA,inactive: 0.0311
13,ACGCACCT,inactive: -0.0993
14,AATATGGA,≥ 0.154
15,CACCCCGC,inactive: -0.205
16,ATACAGCC,inactive: 0.0406
17,GAGGAACC,inactive: -0.0599
18,AGTGTGTG,inactive: 0.139
19,CATCAATC,inactive: 0.122
20,CCGCTTGC,inactive: -0.195
21,AACTGGAA,inactive: -0.00787
22,CGCCTTCA,inactive: -0.176
23,AGCGCGAT,≥ -0.033
24,ATTGTGGG,inactive: -0.0571

row,Sequence,PBM E-score
1,GCAGTCCA,inactive: -0.0454
2,ACGGTTCC,inactive: -0.0912
3,GACCGCAC,inactive: -0.162
4,TGGCACCA,inactive: -0.0957
5,CTTATCGC,inactive: -0.0366
6,ACCTAAAG,inactive: -0.0479
7,CCAAACCG,inactive: -0.0831
8,GTCAAGAC,inactive: 0.0237
9,ATGCGCCA,≥ -0.0376
10,AGACGTTC,inactive: 0.0591
11,ATTCTGCA,inactive: -0.0106
12,ATCTGGGC,inactive: -0.228
13,GCTCCGAC,inactive: -0.0988
14,CAAGATGA,inactive: 0.0249
15,TAACGGGA,inactive: -0.00726
16,ACCCAAGG,inactive: -0.0724
17,TATCAGCA,inactive: 0.0861
18,ATCGACTA,≥ 0.114
19,CAAGTTCG,inactive: -0.0609
20,CTGTAATC,inactive: 0.162
21,AGAGATCA,≥ 0.0775
22,ATCGAAAT,inactive: 0.0069
23,ACGGAACT,inactive: 0.0381
24,AGACCAGC,inactive: -0.163

row,Sequence,PBM E-score
1,ACTCCGTA,inactive: -0.112
2,CGGACGAC,inactive: 0.0284
3,ATATGTAA,active: 0.34
4,ATAATGGG,inactive: 0.0526
5,CAAGATAA,inactive: 0.224
6,AGACAATG,inactive: 0.194
7,AACAGGAC,inactive: 0.169
8,AACCGCCG,inactive: -0.174
9,AGTAAAGC,inactive: -0.00784
10,TCCTTTCA,inactive: -0.0369
11,ACGATCGG,inactive: 0.00215
12,CCTGAGAC,inactive: -0.134
13,CGCCGTTC,inactive: -0.0675
14,AGGGACCC,inactive: -0.284
15,CATATATA,inactive: 0.28
16,GAGCTACA,inactive: 0.0656
17,ACTCTATA,inactive: 0.0364
18,CATCGTAA,inactive: 0.0727
19,GGTCATCA,inactive: -0.0416
20,ACTCACGC,inactive: -0.109
21,AGGTGTCC,inactive: 0.118
22,AAGAAAGT,inactive: 0.0101
23,AACCGTTA,inactive: 0.119
24,GACCCATA,inactive: 0.0231

row,Sequence,PBM E-score
1,GATAATGA,inactive: 0.0499
2,AAATGCGC,inactive: -0.0155
3,GTGCAATA,inactive: 0.0575
4,CCACTACA,inactive: 0.172
5,CATTGCTA,inactive: 0.148
6,CCTCTTAA,inactive: -0.0401
7,ACAAGTAG,active: 0.351
8,AACTCTAC,inactive: -0.0301
9,CAACCAAA,inactive: 0.0298
10,AGGGAGAA,inactive: -0.0592
11,CTCACATC,inactive: 0.0686
12,CCCAAAGG,inactive: -0.265
13,CGTAAGTA,inactive: 0.0813
14,AGATAAGC,inactive: 0.0155
15,AAGGTCTG,inactive: -0.0658
16,ATTTCGCA,≥ 0.07
17,CCAATTCG,inactive: 0.0118
18,AGTAAGCC,inactive: -0.0941
19,ATCAAAAG,inactive: 0.0698
20,AGGCCAGG,inactive: -0.267
21,CTAATATA,inactive: 0.254
22,AAGACGCC,inactive: -0.156
23,CTGACAAG,active: 0.341
